{
  "source": "PubChem BioAssay AID686978",
  "about": "(National Center for Advancing Translational Sciences (NCATS), 2013)",
  "note": "About 64,000 (15%) of roughly 420,000 compounds were called active. This list was built around the results that the source calls inconclusive (neither active nor inactive); the mix of calls is not that of the screen. Calls follow the shape of the dose curve; as a rule, active = well fitted inhibition curve with a large enough effect; inconclusive = small, poorly fitted or top-dose-only effect; inactive = flat fitted curve, though single readings scatter. Potencies of inconclusive entries are left out as doubtful fits. % is scaled to controls: 0 for no effect and ±100 for the full control effect; potency is read from the fitted curve at half-maximal effect; tags tell the direction and shape of the fitted curve.",
  "data": [
    {"assay": "qHTS for Inhibitors of human tyrosyl-DNA phosphodiesterase 1 (TDP1): qHTS in cells in absence of CPT; also: nearly all actives have a fitted effect of over 55% in size", "conditions": "DT40 Tdp1-/- hTDP1 cells, no CPT, ATP luminescence, 48 h; activity change, negative = growth inhibition: at 46.2 µM (top of the series) unless noted", "outline": "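Cells were dispensed at 400 per well, compounds added by pin tool, plates incubated ≥48 hr at 37 °C, then CellTiter-Glo added for 30 min at room temperature before luminescence reading. Line: DT40 Tdp1-/- complemented with hTDP1; camptothecin omitted.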", "values": [
      {"smiles": "CN(C)CC(C)(C)CNC(C(=O)Nc1ccc(Cl)cc1C(F)(F)F)c1ccccc1", "note": "(stereo not given)", "activity change, negative = growth inhibition": "inactive: -12.1%"},
      {"smiles": "CCOC(=O)C1CCCN(C(=O)CN2C(=O)/C(=C/c3ccc(OC)cc3)Oc3ccccc32)C1", "note": "(stereo not given)", "Potency": "active: 13 µM"},
      {"smiles": "CN1CCc2nc3sc(C(=O)Nc4c(F)cccc4F)c(N)c3cc2C1", "Potency": "inconclusive [inhibitor, single point]"},
      {"smiles": "Cc1ccccc1C(=O)NC=C1C(=O)OC(C)(C)OC1=O", "activity change, negative = growth inhibition": "inactive: -17.5%"},
      {"smiles": "CC(C)OCCCNc1ncc2c(n1)CC(c1ccccc1)CC2=O", "note": "(stereo not given)", "Potency": "inconclusive [inhibitor, single point]"},
      {"smiles": "COc1ccc(C(=O)c2sc(Nc3ccccc3)nc2N)cc1OC", "Potency": "inconclusive [inhibitor, single point]"},
      {"smiles": "COC(=O)c1ccc2c(c1)C(=O)/C(=C/c1ccc(O)cc1)O2", "Potency": "inconclusive [inhibitor, single point]"},
      {"smiles": "CCOC(=O)c1ccc(NC(=O)c2nsc3ccccc23)cc1", "Potency": "inconclusive [inhibitor, single point]"},
      {"smiles": "COc1ccccc1-c1ocnc1C(=O)N1CCN(S(=O)(=O)c2ccc(NC(C)=O)cc2)CC1", "activity change, negative = growth inhibition": "inconclusive: -32.7% [inhibitor]"},
      {"smiles": "O=C(NCc1n[nH]c(=S)n1-c1ccc(F)cc1)c1ccc(S(=O)(=O)N2CCOCC2)cc1", "activity change, negative = growth inhibition": "inactive: -11.8%"},
      {"smiles": "CCC1COCCS(=O)(=O)N1Cc1ccccc1C", "note": "(stereo not given)", "Potency": "inconclusive [inhibitor, single point]"},
      {"smiles": "O=C(c1c(F)cccc1F)N1CCC(n2nnc3cc(C(F)(F)F)ccc32)CC1", "Potency": "inconclusive [inhibitor, partial curve]"},
      {"smiles": "c1cncc(CNc2ccc3c(c2)OCO3)c1", "activity change, negative = growth inhibition": "inactive: -18.9%"},
      {"smiles": "O=C(CC1CCCC1)Nc1cc(S(=O)(=O)N2CCOCC2)ccc1O", "Potency": "inconclusive [inhibitor, single point]"},
      {"smiles": "Cc1nn(-c2ccc(N3CCCCC3)nn2)c(C)c1CCC(=O)Nc1ccccc1F", "Potency": "inconclusive [inhibitor, single point]"},
      {"smiles": "Brc1ccc(CSc2nnc3ccccn23)cc1", "activity change, negative = growth inhibition": "inactive: 16.6%"},
      {"smiles": "O=c1[nH]c2ccc(Cl)cc2c(=O)n1Cc1ccco1", "activity change, negative = growth inhibition": "inconclusive: -27.3% [inhibitor]"},
      {"smiles": "Cc1c[n+]([O-])cc(C)c1Oc1ccccc1", "activity change, negative = growth inhibition": "inactive: -21.9%"},
      {"smiles": "NS(=O)(=O)c1cccc(NC(=O)COC(=O)c2cc(-c3ccc(Cl)cc3)nc3ccccc23)c1", "Potency": "inconclusive [inhibitor, partial curve, poor fit]"},
      {"smiles": "CCOC(=O)c1cc(S(=O)(=O)N2CCN(c3cc(Cl)ccc3C)CC2)[nH]n1", "Potency": "inconclusive [inhibitor, single point]"}
    ]}
  ]
}
